The experiment addresses T1, human CD73 on CHO-K1 cells overexpressing human CD73 (human, UniProt P21589 27-549).
T1 construct: whole, on cells; also called CHO-K1-hCD73
T1 sequence (looked up): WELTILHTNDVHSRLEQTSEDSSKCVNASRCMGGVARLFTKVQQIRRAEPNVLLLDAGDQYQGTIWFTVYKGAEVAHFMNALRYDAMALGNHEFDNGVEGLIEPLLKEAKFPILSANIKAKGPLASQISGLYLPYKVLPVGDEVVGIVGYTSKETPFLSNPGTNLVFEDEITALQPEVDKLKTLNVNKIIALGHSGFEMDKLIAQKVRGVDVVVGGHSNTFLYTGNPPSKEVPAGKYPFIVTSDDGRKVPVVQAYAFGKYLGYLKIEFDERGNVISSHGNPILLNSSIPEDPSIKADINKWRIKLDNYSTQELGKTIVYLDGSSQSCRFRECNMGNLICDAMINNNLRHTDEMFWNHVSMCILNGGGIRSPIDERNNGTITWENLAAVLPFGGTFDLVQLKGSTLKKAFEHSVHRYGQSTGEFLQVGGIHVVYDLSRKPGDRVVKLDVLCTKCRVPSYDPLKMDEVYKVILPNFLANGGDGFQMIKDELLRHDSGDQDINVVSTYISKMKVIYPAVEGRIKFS
Put plainly: flow cytometry on CHO-K1 cells overexpressing human CD73 (CHO-K1-hCD73). As for the experimental part: In order to investigate the binding activity of the CD73×PD-L1 bispecific antibody to human CD73 and PD-L1, the binding experiment at the cellular level was performed using CHO-K1 cell strains overexpressing human CD73 or PD-L1 (CHO-K1-hCD73 or CHO-K1-hPD-L1). Briefly, the CHO-K1-hCD73 and CHO-K1-hPD-L1 cells were digested and resuspended in an F-12K complete medium, and the cell density was adjusted to 1×10⁶ cells/mL. The cells were seeded in a 96-well V-bottom plate (Corning, #3894) at 100 μL/well, followed by the addition at 100 μL/well and centrifugation at 500 g at 4° C. for 5 min, and then the supernatant was discarded. Antibodies were 3-fold diluted to a maximum final concentration of 50 nM, and a total of 8 concentrations were set. 100 μL of the diluted antibodies was added to the cells, and the cells were incubated away from light at 4° C for 1 h. Thereafter, the cells in each well were rinsed twice with 100 μL of pre-cooled PBS, and centrifuged at 500 g at 4° C. for 5 min, and then the supernatant was discarded. Then 100 μL of a fluorescent secondary antibody (goat anti-human IgG (H+L) secondary antibody, Alexa Fluor® 488 conjugate, Invitrogen, #A11013, diluted at the ratio of 1:1000) was added to each well. […] Finally, the cells in each well were resuspended in 200 μL of pre-cooled PBS, and the fluorescence signal values were read using a BD FACS CANTOII.

B1: PR003569 (bispecific antibody, human IgG1, kappa)
heavy: QVQLVESGGGVVQPGMSLRLSCAASGFTFSSYGMYWVRQAPGKGQEWVAIIWYDGTKKHYADSVKGRFTISRDNSKNTLYLEMNSLRVEDTAVYYCAKNRAIFGVVPDASDIRGQGTMVTVSSGGGGSGGGGSGGGGSQVQLVESGGGVAQPGRSLSLSCAASGFTFSDYGMHWVRQAPGKGLEWVALIWYDASFEYYADSVKGRFSISRDNSKNTLYLQMNSLRAEDTAVYYCVRDAQWGSRLDYWGQGTLVTVSSASTKGPSVFPLAPSSKSTSGGTAALGCLVKDYFPEPVTVSWNSGALTSGVHTFPAVLQSSGLYSLSSVVTVPSSSLGTQTYICNVNHKPSNTKVDKKV[human IgG1 Fc with changes omitted]
light: KIVMTQSPATLSLSPGERATLSCRASQSVSRYLAWYQQKPGQAPRLLIYDASNRATGIPARFSGSGSGTDFTLTISSLEPEDFAVYYCQQRSNWIFTFGPGTKVDIKRTVAAPSVFIFPPSDEQLKSGTASVVCLLNNFYPREAKVQWKVDNALQSGNSQESVTEQDSKDSTYSLSSTLTLSKADYEKHKVYACEVTHQGLSSPVTKSFNRGEC
notes: light chain of PR000846; also called CD73×PD-L1 bispecific antibody PR003569
Regarding B1, the response was half-maximal at 1.73 nM (EC50).

Values taken from patent US20240269276A1 (HARBOUR BIOMED SHANGHAI, published 2024).
